{"source": "PubChem BioAssay AID1476", "about": "(National Center for Advancing Translational Sciences (NCATS), 2009)", "note": "Out of some 200,000 compounds screened, about 4,500 (2.2%) were called active. Inconclusive results, whose numbers are uncertain, are shown with a selection of clear calls. Calls come from the whole dose curve; as a rule, active = well fitted inhibition curve with a large enough effect; inconclusive = small, poorly fitted or top-dose-only effect, or effect the other way; inactive = flat fitted curve, though single readings scatter. Potencies of inconclusive entries are doubtful fits and often do not repeat. Potency is the fitted concentration of half-maximal effect; tags give direction and shape of the fitted curve."}
{"target": "Cruzipain (Trypanosoma cruzi) (UniProt P25779)", "sequence (P25779 whole entry, looked up)": "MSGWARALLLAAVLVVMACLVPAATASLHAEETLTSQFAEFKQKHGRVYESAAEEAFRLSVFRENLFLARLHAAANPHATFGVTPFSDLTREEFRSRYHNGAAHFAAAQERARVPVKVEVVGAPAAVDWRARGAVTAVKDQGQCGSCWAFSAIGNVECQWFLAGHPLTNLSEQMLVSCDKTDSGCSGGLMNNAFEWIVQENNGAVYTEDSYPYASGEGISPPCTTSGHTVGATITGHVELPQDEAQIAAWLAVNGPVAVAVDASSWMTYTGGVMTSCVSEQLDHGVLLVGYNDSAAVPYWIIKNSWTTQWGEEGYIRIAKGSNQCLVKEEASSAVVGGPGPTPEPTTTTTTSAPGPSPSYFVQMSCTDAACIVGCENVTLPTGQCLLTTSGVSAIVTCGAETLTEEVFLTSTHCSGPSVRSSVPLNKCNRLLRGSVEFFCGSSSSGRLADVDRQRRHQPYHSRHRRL", "experiment": "qHTS Assay for Promiscuous and Specific Inhibitors of Cruzain (without detergent); note: nearly all actives have a fitted effect of over 40% in size;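 for max response, negative = inhibition: plate controls were enzyme without inhibitor for no effect and buffer without enzyme for full effect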", "conditions": "purified cruzain, Z-FR-AMC fluorescence, no detergent", "how_it_was_run": "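Detergent-free condition (0.00005% Triton X-100) in acetate buffer pH 5.5 with DTT. 1.5 nM enzyme and compound were pre-mixed 15 min, then 2 uM Z-FR-AMC substrate added; reaction progress from fluorescence change between first and third reads (60 s).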"}
{"smiles": "CCOc1ccc(/C=C/c2nc(C#N)c(NCCCN(C)C)o2)cc1", "Potency": "inconclusive: 25.1 µM [inhibitor, single point]"}
{"smiles": "O=C1c2ccccc2CCCC12N=NCC2c1cccc2ccccc12", "note": "(stereo not drawn)", "Potency": "inconclusive: 39.8 µM [inhibitor, single point]"}
{"smiles": "C=CCNc1nc(-c2sc(NC(=O)CC)nc2C)cs1", "Potency": "inconclusive: 1 µM [inhibitor, single point]"}
{"smiles": "CCOc1ccccc1NC(=O)CSc1ccc2nc(-c3ccccc3)cn2n1", "max response, negative = inhibition": "inactive: -6.02%"}
{"smiles": "Cc1cc(C)cc(NC(=O)c2cccc(C(=O)Nc3cc(C)cc(C)c3)c2)c1", "max response, negative = inhibition": "inactive: -3.51%"}
{"smiles": "CSc1cccc(NC(=O)CN2C(=O)CCc3cc(S(=O)(=O)N4CCCCC4)ccc32)c1", "max response, negative = inhibition": "inactive: -6.74%"}
{"smiles": "COC(=O)C1NN=C(C(=O)c2ccc(Br)cc2)C1c1cccc(Br)c1", "note": "(stereo not drawn)", "Potency": "inconclusive: 31.6 µM [inhibitor, single point]"}
{"smiles": "Cn1c(=O)c2c(nc(CN3CCN(c4ccccc4)CC3)n2Cc2ccccc2Cl)n(C)c1=O", "Potency": "inconclusive: 25.1 µM [activator, partial curve]"}
{"smiles": "O=C(Cn1c(-c2cscn2)nc2ccccc21)Nc1ccc(Cl)cc1", "Potency": "inconclusive: 39.8 µM [activator, single point]"}
{"smiles": "CCOP(=O)(OCC)C(Nc1cccc(C(F)(F)F)c1)c1ccc(F)cc1", "note": "(stereo not drawn)", "Potency": "inconclusive: 31.6 µM [activator, single point]"}
{"smiles": "COc1ncnc2c1oc1nc(C(C)C)c3c(c12)CC(C)(C)OC3", "Potency": "inconclusive: 39.8 µM [activator, single point]"}
{"smiles": "COc1ccc2c(c1)CC(C(=O)NCCc1ccc(S(N)(=O)=O)cc1)CO2", "note": "(stereo not drawn)", "Potency": "inconclusive: 1 µM [activator, single point]"}
{"smiles": "Cc1cc(=O)n(Cc2c(F)cccc2Cl)c2c1c(C)nn2C", "Potency": "inconclusive: 39.8 µM [activator, single point]"}
{"smiles": "Cn1c(=O)n(C)c2cc(N3CCOCC3)c(NS(=O)(=O)c3ccc(Cl)cc3)cc21", "Potency": "inconclusive: 39.8 µM [activator, single point]"}
{"smiles": "COc1ccccc1N1CCN(C(=O)CN(CCc2ccccc2)S(C)(=O)=O)CC1", "Potency": "inconclusive: 39.8 µM [activator, single point]"}
{"smiles": "COc1ccccc1N1CCN(C(=O)c2cc3c(-c4ccccc4F)nn(C)c3s2)CC1", "Potency": "inconclusive: 25.1 µM [activator, single point]"}
{"smiles": "CC1=CC(=C(C#N)c2nc3ccccc3s2)C=C(C)N1c1ccc(F)cc1", "Potency": "inconclusive: 39.8 µM [inhibitor, single point]"}
{"smiles": "O=C(Nc1ccc(Br)cn1)c1cccc(-c2cc3ccccc3oc2=O)c1", "Potency": "inconclusive: 31.6 µM [inhibitor, single point]"}
{"smiles": "O=C(CCNS(=O)(=O)c1ccc2c(c1)CCN2C(=O)C1CC1)N1CCN(c2cccc(C(F)(F)F)c2)CC1", "Potency": "inconclusive: 39.8 µM [activator, single point]"}
{"smiles": "O=C(c1cc2sccc2n1Cc1ccc(F)cc1)N1CCc2ccccc21", "Potency": "active: 25.1 µM"}
{"smiles": "CCc1nnc(NC(=O)CSc2nc3cc4c(cc3cc2CC)OCCO4)s1", "Potency": "inconclusive: 25.1 µM [activator, single point]"}
{"smiles": "Cc1ccc(OCCSc2nc3ccc(NC(=O)c4ccco4)cc3s2)cc1", "max response, negative = inhibition": "inactive: -2.45%"}
{"smiles": "Cc1ccc(NC(=S)Nc2ccc(Br)cc2)cc1", "Potency": "inconclusive: 39.8 µM [inhibitor, single point]"}
{"smiles": "O=C(CCNC(=O)c1ccccc1)Oc1ccc([N+](=O)[O-])cc1", "Potency": "active: 25.1 µM"}
{"smiles": "Cc1ccc(CNC(=O)CCc2nc3cccnc3n2Cc2ccccc2)cc1", "max response, negative = inhibition": "inactive: 0.774%"}
{"smiles": "NC(=O)C(CC(=O)O)NC(=O)[C@@H]1CCOc2c(I)cc([N+](=O)[O-])cc2C(=O)N[C@@H](CO)C(=O)N[C@@H](Cc2ccc(O)cc2)C(=O)N1", "note": "(stereo partly drawn)", "Potency": "inconclusive: 31.6 µM [activator, single point]"}
{"smiles": "O=C(Oc1ccc(-c2cnc3ccccc3n2)cc1)c1ccc(Cl)c([N+](=O)[O-])c1", "Potency": "inconclusive: 6.31 µM [inhibitor, full curve]"}
{"smiles": "CCN(C(=O)Cn1c(=O)n(Cc2ccc3c(c2)OCO3)c(=O)c2ccc(C(=O)NC3CCCCC3)cc21)c1cccc(C)c1", "Potency": "active: 31.6 µM"}
{"smiles": "CNC(=S)N(CCc1c(C)[nH]c2ccccc12)Cc1cc(OC)c(OC)c(OC)c1", "Potency": "inconclusive: 39.8 µM [activator, single point]"}
{"smiles": "COc1ccc(OC)c(S(=O)(=O)N2CCN(Cc3nc4ccc(C)cc4o3)CC2)c1", "Potency": "inconclusive: 39.8 µM [activator, single point]"}
{"smiles": "O=C(COC(=O)COc1ccccc1Cc1ccccc1)Nc1cccnc1Cl", "Potency": "inconclusive: 39.8 µM [activator, single point]"}
{"smiles": "CCN(CC)c1ccc(/C=C(/C#N)c2nc3ccc(C)cc3[nH]2)c(OC(C)C)c1", "Potency": "active: 25.1 µM"}
{"smiles": "CC(=O)c1cccc(NC(=O)Cn2cc(C(=O)c3cccc(Cl)c3)c(=O)c3ccc(C)nc32)c1", "max response, negative = inhibition": "inactive: -19.5%"}
{"smiles": "COc1ccc(C(=O)NC2CCCCCC2)cc1S(=O)(=O)N1CCCc2ccccc21", "max response, negative = inhibition": "inactive: -28.8%"}
{"smiles": "CCCOC(=O)c1[nH]c2c(c1C)C(=O)CC(c1cc(OC)c(OC)c(OC)c1)C2", "note": "(stereo not drawn)", "Potency": "inconclusive: 31.6 µM [activator, single point]"}
{"smiles": "O=C1C(Cl)=C(N2CCCCC2)C(=O)C(Cl)=C1c1cnc(N2CCCCC2)s1", "Potency": "inconclusive: 25.1 µM [inhibitor, single point]"}
{"smiles": "CCC(=O)N1CCCc2cc(S(=O)(=O)N3CCC(C(=O)Nc4ccc(C#N)cc4)CC3)ccc21", "max response, negative = inhibition": "inactive: 17.8%"}
{"smiles": "O=c1c2ccccc2c(-c2ccccc2)nn1-c1cc(Cl)ccc1[N+](=O)[O-]", "Potency": "inconclusive: 25.1 µM [inhibitor, single point]"}
{"smiles": "CCOC(=O)c1cc(S(=O)(=O)NCc2ccc(OC)cc2)[nH]n1", "max response, negative = inhibition": "inactive: -7.57%"}
{"smiles": "COc1ccc(OCc2ccc(-c3nc(C#N)c(NCc4cccnc4)o3)o2)cc1", "Potency": "inconclusive: 31.6 µM [activator, single point]"}
{"smiles": "Cc1oc2ccc(OC(=O)N3CCOCC3)cc2c1C(=O)OC(C)C", "Potency": "inconclusive: 31.6 µM [activator, single point]"}
{"smiles": "COCCn1nnnc1C(c1ccc(OC)c(OC)c1)N1CCN(c2nc3ccccc3s2)CC1", "note": "(stereo not drawn)", "Potency": "inconclusive: 20 µM [activator, partial curve]"}
{"smiles": "COc1ccc(-c2cc(C(=O)N/N=C/c3sccc3C)c3ccccc3n2)c(OC)c1", "Potency": "inconclusive: 31.6 µM [inhibitor, single point]"}
{"smiles": "CC(NC(=O)CSc1nc(-c2ccccc2F)nc2cc(=O)[nH]n12)c1nc2ccccc2n1C", "note": "(stereo not drawn)", "max response, negative = inhibition": "inactive: -4.62%"}
{"smiles": "Cc1ccccc1C1C(C#N)=C2NC(=O)c3c(sc4c3CCCCC4)N2C2=C1C(=O)CC(C)(C)C2", "note": "(stereo not drawn)", "Potency": "inconclusive: 39.8 µM [inhibitor, single point]"}
{"smiles": "CC(=O)N1CCC2(CC1)CCN(c1ccc(-c3ccccc3)cc1)CC2", "Potency": "inconclusive: 31.6 µM [activator, partial curve]"}
{"smiles": "Cc1ccc2nc3c(cc(C(=O)NCc4ccco4)c(=N)n3C(C)C)c(=O)n2c1", "max response, negative = inhibition": "inactive: -4.84%"}
{"smiles": "O=C(Nc1nccs1)c1ccc(-c2ccccc2Cl)o1", "Potency": "inconclusive: 25.1 µM [inhibitor, single point]"}
{"smiles": "CCOC(=O)c1ccc(-c2ccc(C3Nc4ccccc4C(=O)N3O)o2)cc1", "note": "(stereo not drawn)", "Potency": "inconclusive: 39.8 µM [inhibitor, single point]"}
{"smiles": "C/C(=N\\Nc1nc(-c2cc(C)ccc2C)cs1)c1cc2c(ccc3ccccc32)oc1=O", "Potency": "active: 7.94 µM"}
{"smiles": "Cc1ccc(-c2cc(C(=O)n3cnc4ccccc43)c3ccccc3n2)cc1C", "Potency": "inconclusive: 31.6 µM [inhibitor, single point]"}
{"smiles": "CC1CCN(CCCNC(=O)CN2C(=O)CSc3ccc(S(=O)(=O)N4CCOCC4)cc32)CC1", "Potency": "inconclusive: 3.16 µM [activator, partial curve]"}
{"smiles": "O=C(COC(=O)c1cc(-c2ccccc2)nc2ccccc12)Nc1ccc2c(c1)OCO2", "Potency": "inconclusive: 39.8 µM [inhibitor, single point]"}
{"smiles": "CCc1nnc(SC(CC)C(=O)Nc2cc(C)ccc2C)c2cc3occc3n12", "note": "(stereo not drawn)", "max response, negative = inhibition": "inactive: -14.5%"}
{"smiles": "O=C(NCC1CCCO1)C(c1cccs1)N(C(=O)c1ccc(-c2ccccc2)[nH]1)C1CCCC1", "note": "(stereo not drawn)", "Potency": "inconclusive: 39.8 µM [activator, single point]"}
{"smiles": "Cc1cc(C)c(S(=O)(=O)N(C2=NCCS2)S(=O)(=O)c2c(C)cc(C)cc2C)c(C)c1", "Potency": "inconclusive: 25.1 µM [inhibitor, single point]"}
{"smiles": "COc1ccc(-c2nn(-c3ccccc3)cc2C(=O)OCC(=O)c2ccc(C)c([N+](=O)[O-])c2)cc1", "Potency": "active: 25.1 µM"}
{"smiles": "CCn1c(=O)c2sccc2n2c(CCC(=O)Nc3ccc(C(C)C)cc3)nnc12", "Potency": "inconclusive: 31.6 µM [activator, single point]"}
{"smiles": "CCc1ccc(NC(=O)Cn2c(=O)n(CCc3ccccc3)c(=O)c3sc4ccccc4c32)cc1", "max response, negative = inhibition": "inactive: -8.93%"}
{"smiles": "CCCCCCC(=O)N(O)C1CC(=O)N(c2ccc(C)cc2)C1=O", "note": "(stereo not drawn)", "Potency": "inconclusive: 39.8 µM [inhibitor, single point]"}
{"smiles": "C=CCn1c(SCC(=O)Nc2ccccc2)nc2scc(-c3cccs3)c2c1=O", "Potency": "active: 25.1 µM"}
{"smiles": "COc1ccc(S(=O)(=O)N(CCc2ccccc2)CC(=O)Nc2cc(C)cc(C)c2)cc1OC", "Potency": "inconclusive: 20 µM [activator, partial curve]"}
{"smiles": "COc1ccccc1N1CCN(S(=O)(=O)CCNC(=O)C(c2ccccc2)c2ccccc2)CC1", "Potency": "inconclusive: 25.1 µM [activator, single point]"}
